Assay results from PubChem BioAssay AID588855 (National Center for Advancing Translational Sciences (NCATS), 2011).
“And” between values parts separate entries of the source, which are not always exact repeats. Identical values can stand only once. Hit rate of the full screen: of about 410,000 compounds, about 5,000 (1.2%) were called active. The inconclusive results got no clear call from the source; some entries with a clear call stand among them for comparison. Calls come from the whole dose curve; as a rule, active = well fitted inhibition curve with a large enough effect; inconclusive = small, poorly fitted or top-dose-only effect; inactive = no such curve, though single readings can be large or run the other way. Potencies beside an inconclusive call are fits to weak or partial responses and may not hold up.

assay: qHTS for Inhibitors of TGF-b; settings: HepG2 CAGA-GFP TGF-b/SMAD3 reporter, GFP fluorescence, 18 h, TGF-beta stimulated, 500 pg/mL final; series mostly up to 46.1 µM; activity, negative = inhibition: at the top concentration; note: nearly all actives have a fitted effect of over 65% in size
Summary of the method: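 HEPG2 CAGA-GFP cells (1000/well, DMEM with 1% FBS) were pre-incubated 2 h at 37 degrees C, given compound by pin tool, then stimulated with TGF-beta at 500 pg/mL final for 18 h before per-cell GFP fluorescence imaging.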
% is set by controls: 0 for no effect and ±100 for the full control effect; potency is the fitted concentration of half-maximal effect; tags give direction and shape of the fitted curve.

| Structure (SMILES) | Potency | activity, negative = inhibition |
| --- | --- | --- |
| Cc1cccc(NC(=O)c2nnn(-c3cccc(C(F)(F)F)c3)c2N)c1 | inconclusive: 20 µM [inhibitor, single point] |  |
| Oc1ccccc1Nc1nc(NCc2ccco2)c2ccccc2n1 | inconclusive: 35.5 µM [inhibitor, single point] |  |
| Cc1cc(C)nc(NC(=O)CCCC(=O)O)c1 |  | inactive: 2.69% |
| O=C(NCCCCCCNC(=O)c1ccccc1O)c1ccccc1O | active: 8.91 µM |  |
| O=S(=O)(NC1c2cccc3cccc(c23)C1Sc1ncccn1)c1ccc(Cl)cc1 (stereo unspecified) | inconclusive: 35.5 µM [inhibitor, single point] |  |
| COc1ccc(C2=NN(C(=O)CCCC(=O)O)C(c3cccs3)C2)cc1OC (stereo unspecified) | inconclusive: 3.16 µM [inhibitor, single point] |  |
| N#Cc1ccsc1NC(=O)c1ccc(Cl)c([N+](=O)[O-])c1 | active: 7.08 µM |  |
| O=C(Cn1c(=O)n(-c2cccc(Cl)c2)c(=O)c2sc3ccccc3c21)NC1CCCCC1 |  | inactive: -11.2% |
| Cc1ccc(S(=O)(=O)N2CCCCC2)cc1NS(=O)(=O)c1cccc(C(=O)O)c1 | inconclusive: 6.31 µM [inhibitor, single point] |  |
| CCOC(=O)c1ccsc1NC(=O)CCS(=O)(=O)c1ccccc1 |  | inactive: -18.9% |
| COc1ccc2c(CN3CCN(c4ccccc4F)CC3)cc(=O)oc2c1 | inconclusive: 8.91 µM [inhibitor, partial curve, poor fit] |  |
| CCOc1ccc(C(=O)Nc2ccc3nn(-c4ccc(OC)c(Cl)c4)nc3c2)cc1 |  | inactive: 0.173% |
| COc1ccccc1N1CCN(C(c2cccs2)c2nnnn2C2CCCC2)CC1 (stereo unspecified) | inconclusive: 35.5 µM [inhibitor, single point] |  |
| Cn1c(NCC(O)c2ccccc2)nc2c1c(=O)n(Cc1ccc(Cl)c(Cl)c1)c(=O)n2C (stereo unspecified) | inconclusive: 35.5 µM [inhibitor, single point] |  |
| Nc1ccc([N+](=O)[O-])cc1C(=O)NNC(=O)c1ccco1 | inconclusive: 3.55 µM [inhibitor, single point] |  |
| COc1ccccc1C(=O)NC(=O)COC(=O)CN1C(=O)NC(C)(C)C1=O |  | inactive: -4.85% |
| COc1ccc(-n2c(C)cc(C(=O)CN3C(=O)NC4(CCCc5sccc54)C3=O)c2C)cc1 (stereo unspecified) | inconclusive: 15.8 µM [inhibitor, single point] |  |
| Cn1c(C(=O)N2CCCC(C(=O)NCCc3ccccc3)C2)cc2sccc21 (stereo unspecified) | inconclusive: 11.2 µM [inhibitor, partial curve, poor fit] |  |
| Cc1cnc(NC(=O)CC(C)c2ccccc2)s1 (stereo unspecified) |  | inactive: 0.709% |
| COc1ccc(C2C(C#N)=C(/N=C/N3CCN(C)CC3)OC3=C2C(=O)CC(C)(C)C3)cc1 (stereo unspecified) | inconclusive: 35.5 µM [inhibitor, single point] |  |
| CN1CCN(C(=O)CCN2C(=O)/C(=C\c3ccc(Cl)cc3Cl)SC2=S)CC1 | inconclusive: 15.8 µM [inhibitor, single point] |  |
| COc1ccc(-c2ccc3[nH]c4c(c3c2)CCN2C(=O)[C@@H]([C@H](C)O)[C@@H](N(C)C(=O)Nc3ccccc3)C[C@@H]42)cc1 | inconclusive: 22.4 µM [inhibitor, single point] |  |

| Structure (SMILES) | Potency | activity, negative = inhibition |
| --- | --- | --- |
| CCN1C(=O)N[C@@H](c2ccc(Br)cc2)C(C(=O)OC)=C1C | inconclusive: 20 µM [inhibitor, single point] |  |
| COc1cc(OC)c(OC)cc1/C=C/c1nc2cc3ccccc3cc2c(=O)n1-c1ccc(F)c(Cl)c1 | inconclusive: 12.6 µM [inhibitor, partial curve] |  |
| COc1cc(C(=O)NCC(=O)NCCCSc2ccccc2)cc(OC)c1OC |  | inactive: -15.9% |
| CN(c1ccccc1)c1nc(N)c([N+](=O)[O-])c(NCc2ccccc2)n1 | inconclusive: 20 µM [inhibitor, single point] |  |
| Oc1ccc(-c2csc(Nc3ncccn3)n2)c(O)c1 |  | inactive: -20.2% |
| O=C(/C=C/c1ccccc1)N1CCN(c2cccc(Cl)n2)CC1 |  | inactive: 5.95% |
| CCCCCC[n+]1ccccc1/C=C/c1ccc(N(C)C)cc1 |  | inactive: 93.9% |
| O=c1c2cc(NC(=S)NC3CCCC3)ccc2nc2n1CCCCC2 |  | inactive: -3.43% |
| CCC1(c2ccccc2)ON(c2c(Br)cccc2Br)C1=O (stereo unspecified) | inconclusive: 28.2 µM [inhibitor, single point] |  |
| Nc1nc2c(ncn2C2CCCC2)c(=O)[nH]1 | inconclusive: 0.631 µM [inhibitor, partial curve, poor fit] |  |
| CC(C)COP(=O)(c1ccc(N(C)C)cc1)C(O)c1ccccc1F (stereo unspecified) | inconclusive: 31.6 µM [inhibitor, single point] |  |
| Cc1ccnc(N2C(=O)CSC2c2ccc(Cl)cc2)c1 (stereo unspecified) | inconclusive: 5.62 µM [inhibitor, single point] |  |
| COc1ccc(Cc2nnc(Nc3ccc(Cl)cc3)[nH]c2=O)cc1 | inconclusive: 35.5 µM [inhibitor, single point] |  |
| COc1ccc2nc(C3CCCCC3)nc(C3CCCCC3)c2c1 | inconclusive: 0.631 µM [inhibitor, partial curve, poor fit] |  |
| COc1ccc(OCc2ccc(/C=N\NC(=O)c3sccc3C)o2)cc1 |  | inactive: -1.54% |
| S=C(c1ccc(OCc2ccccc2)cc1)N1CCCC1 | inconclusive: 35.5 µM [inhibitor, single point] |  |
| CCOc1ccccc1C(=O)NCC(=O)NCCCSc1ccccc1 |  | inactive: -5.01% |
| COc1ccc(C(CCN2CCCC(C)C2)c2c(OC)cc(OC)c3c(-c4ccccc4)cc(=O)oc23)cc1 (stereo unspecified) | inconclusive: 35.5 µM [inhibitor, partial curve, poor fit] and inconclusive: 35.5 µM [inhibitor, single point] |  |
| O=C1Nc2ccc(Cl)cc2/C1=C/C1CC=CCC1 (stereo unspecified) | inconclusive: 35.5 µM [inhibitor, single point] |  |
| NCCCNC(=S)NCCCN(Cc1ccc(Cl)cc1)c1ccc(Br)cn1 | inconclusive: 22.4 µM [inhibitor, single point] and inconclusive: 35.5 µM [inhibitor, single point] |  |
| Cc1onc(-c2ccccc2)c1C(=O)NNC(=O)c1ccccc1 |  | inactive: 14.4% |
| COc1ccc(CSC2=CS(=O)(=O)c3ccccc3N2)cc1 |  | inactive: -9.53% |

| Structure (SMILES) | Potency | activity, negative = inhibition |
| --- | --- | --- |
| Cc1ccc(-c2nn(-c3cccc(F)c3)cc2CN2CCN(c3ccccn3)CC2)o1 | inconclusive: 10 µM [inhibitor, partial curve, poor fit] |  |
| C[C@@]12CCC3[C@@](CCC4[C@@]3(C)CCC[C@@]4(C)C(=O)N3CCCCC3)(CC1=O)C2 (stereo partly specified) | inconclusive: 4.47 µM [inhibitor, full curve, poor fit] |  |
| C/C(=N/NC(=O)C1CCCN1C(=O)c1ccc([N+](=O)[O-])cc1)c1ccc(Br)cc1 (stereo unspecified) | inconclusive: 8.91 µM [inhibitor, partial curve, poor fit] |  |
| CCCCOc1ccccc1-c1ccccc1CN1[C@@H](C(C)C)COCCS1(=O)=O | inconclusive: 17.8 µM [inhibitor, partial curve, poor fit] |  |
| CC(=O)CCN1CCOCC1 | inconclusive: 6.31 µM [inhibitor, single point] |  |
| CCCCCN1CC(=O)N2C(C)c3[nH]c4ccccc4c3C[C@H]2C1=O (stereo partly specified) | inconclusive: 10 µM [inhibitor, partial curve] |  |
| COc1cccc(NC(=O)C(Sc2nnc(-c3ccncc3)n2-c2ccc(Cl)cc2)c2ccccc2)c1 (stereo unspecified) | inconclusive: 15.8 µM [inhibitor, single point] |  |
| NC(=O)c1ccccc1NC(=O)CN1CCN(Cc2ccc(Cl)cc2Cl)CC1 | inconclusive: 12.6 µM [inhibitor, single point] |  |
| CCOc1ccc(N(CC(=O)Nc2ccccc2CC)S(=O)(=O)c2c(C)noc2C)cc1 |  | inactive: -14.9% |
| COc1cccc(Cn2c(=O)n(CCc3ccccc3)c(=O)c3c2c2cc(OC)ccc2n3C)c1 |  | inactive: 0% |
| FC(F)Oc1ccc(/C=N/n2c(Cc3ccc(Br)cc3)n[nH]c2=S)cc1 | inconclusive: 28.2 µM [inhibitor, single point] |  |
| COc1ccc(NC(=O)c2c(NC(=O)c3ccncc3)sc3c2CCC(C(C)(C)C)C3)cc1 (stereo unspecified) | inconclusive: 15.8 µM [inhibitor, single point] |  |
| Cc1ncoc1C(=O)Nc1ccc(Oc2ccccc2)cc1 |  | inactive: 26.7% |
| Nc1nc(SCC(=O)Nc2ccccc2)nc2nc3c(cc12)CCCC3 | inconclusive: 11.2 µM [inhibitor, partial curve, poor fit] |  |
| CC1CCN(S(=O)(=O)c2ccc(NC(=O)Cn3nnc(-c4ccccc4F)n3)cc2)CC1 | inconclusive: 35.5 µM [inhibitor, single point] |  |
| O=C(N/N=C/c1ccccc1)c1[nH]ncc1Br | inconclusive: 28.2 µM [inhibitor, single point] |  |
| COc1ccc(CC(=O)NCc2ccc3c(c2)CCN3C(C)=O)cc1 |  | inactive: 16.8% |
| COc1ccc(-c2nc(SCC(=O)Nc3ccc4c(c3)OCCO4)c(-c3ccc(F)cc3)[nH]2)cc1OC | inconclusive: 35.5 µM [inhibitor, partial curve, poor fit] |  |
| C/C(CC(=O)Nc1ccc(C)c(Cl)c1)=N\NC(=O)c1ccncc1 | inconclusive: 0.112 µM [inhibitor, full curve, poor fit] |  |
| Cn1ccc2c(-c3ccc(C(F)(F)F)cc3)cc3c(c21)C1CCC3C1 (stereo unspecified) | inconclusive: 25.1 µM [inhibitor, partial curve, poor fit] |  |
| O=C(c1ccc2c(c1)N(Cc1ccc(F)cc1)C(=O)c1ccccc1S2(=O)=O)N1CCN(Cc2ccccc2)CC1 | active: 3.55 µM |  |
| Cc1[nH]c2ccccc2c1C1=CC(=O)C=CC1=O | inconclusive: 35.5 µM [inhibitor, single point] |  |
